In this assay the target is T1, His-tagged full-length DDX3 (amino acids 1-662) (human, UniProt O00571 1-662).
T1 construct: Expressed in MDA231, HEK293A or NIH3T3 cells by transfection; also called recombinant DDX3; wild-type DDX3; not shown: N-terminal 6-His tag from the pcDNA3.1-His vector
Kind of assay: co-immunoprecipitation, co-transfected 3T3 cells.

B1: Mutant DR5 with a truncation of […] (D7) (receptor)
chain: not shown
notes: Internal deletion; otherwise whole receptor, expressed in NIH3T3 cells; also called […]
Take B1: the binding result is reported as “no binding”.

The record behind these values is patent US20110104143A1 (UAB RESEARCH FOUNDATION, published 2011).
